According to the supplement of paper PMC4967469:

What was measured:
Assay in all cases: Viability of human cancer cell lines after 72 h of drug (GDSC screen)
HG-5-88-01 = compound: COc1cc(N2CCC(C(N)=O)CC2)ccc1Nc1nc(N)c(Cl)c(Nc2ccccc2S(=O)(=O)C(C)C)n1 [HG-5-88-01]; settings: top dose 10 µM; top dose inferred
Procedure: (§1)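 Human cancer cell lines in 384-well plates, medium with 10% serum, drug for 72 h over a 256-fold dose range (nine 2-fold or five 4-fold steps up to the top dose). Adherent lines were fixed and stained with the nucleic acid dye Syto60, suspension lines read with resazurin; signal relative to control wells, capped at 0 and 100%. One two-parameter sigmoid per drug and line, fitted in a mixed model over all curves with the slope shared within a line.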

Tamoxifen = compound: CC/C(=C(\c1ccccc1)c1ccc(OCCN(C)C)cc1)c1ccccc1 [Tamoxifen]; settings: top dose 5 µM
Procedure: as §1

Masitinib = compound: Cc1ccc(NC(=O)c2ccc(CN3CCN(C)CC3)cc2)cc1Nc1nc(-c2cccnc2)cs1 [Masitinib]; settings: top dose 20 µM
Procedure: as §1

VNLG/124 = compound: CCCC(=O)OCc1ccc(OC(=O)/C=C(C)/C=C/C=C(C)/C=C/C2=C(C)CCCC2(C)C)cc1 [VNLG/124]; settings: top dose 5.12 µM; top dose inferred
Procedure: as §1

NSC-87877 = compound: O=S(=O)(O)c1ccc2cc(N=Nc3cc(S(=O)(=O)O)c4cccnc4c3O)ccc2c1 [NSC-87877]; settings: top dose 16 µM; top dose inferred
Procedure: as §1

LAQ824 = compound: O=C(/C=C/c1ccc(CN(CCO)CCc2c[nH]c3ccccc23)cc1)NO [LAQ824]; settings: top dose 1.024 µM; top dose inferred
Procedure: as §1

BX-912 = compound: O=C(Nc1cccc(Nc2ncc(Br)c(NCCc3cnc[nH]3)n2)c1)N1CCCC1 [BX-912]; settings: top dose 10.24 µM; top dose inferred
Procedure: as §1

Bleomycin = compound: Cc1c(N)nc([C@H](CC(N)=O)NC[C@H](N)C(N)=O)nc1C(=O)N[C@H](C(=O)N[C@H](C)[C@@H](O)[C@H](C)C(=O)N[C@H](C(=O)NCCc1nc(-c2nc(C(=O)NCCC[S+](C)C)cs2)cs1)[C@@H](C)O)[C@@H](OC1OC(CO)C(O)C(O)C1OC1OC(CO)C(O)C(OC(N)=O)C1O)c1cnc[nH]1 [Bleomycin]
Procedure: as §1

OSI-930 = compound: O=C(Nc1ccc(OC(F)(F)F)cc1)c1sccc1NCc1ccnc2ccccc12 [OSI-930]; settings: top dose 10.24 µM
Procedure: as §1

[1] = top dose 50 µM, screen: GDSC drug entry 1378, top dose inferred
[2] = top dose 64 µM, screen: GDSC drug entry 190

Cell Line	AUC (HG-5-88-01)	IC50 (HG-5-88-01)	AUC (Tamoxifen)	IC50 (Tamoxifen)	AUC (Masitinib)	IC50 (Masitinib)	AUC (VNLG/124)	IC50 (VNLG/124)	AUC (NSC-87877)	IC50 (NSC-87877)	AUC (LAQ824)	IC50 (LAQ824)	AUC (BX-912)	IC50 (BX-912)	AUC (Bleomycin; [1])	IC50 (Bleomycin; [1])	AUC (Bleomycin; [2])	IC50 (Bleomycin; [2])	AUC (OSI-930)	IC50 (OSI-930)
H2803 (mesothelioma, adherent)	0.949	> 10 µM	0.983	> 5 µM	0.952	> 20 µM	0.982	> 5.12 µM	0.983	> 16 µM	0.61	0.135 µM	0.955	> 10.2 µM	0.69	11.7 µM	0.368	1.63 µM	0.97	> 10.2 µM
NCI-H1915 (large cell lung carcinoma, adherent)	0.986	> 10 µM	0.986	> 5 µM	0.908	> 20 µM	0.981	> 5.12 µM	0.987	> 16 µM	0.431	0.0413 µM	0.911	> 10.2 µM	0.52	3.55 µM	0.736	19.1 µM	0.964	> 10.2 µM
RS4-11 (leukaemia, suspension)	0.773	3.57 µM	0.97	> 5 µM	0.903	> 20 µM	0.988	> 5.12 µM	0.989	> 16 µM	0.169	0.00715 µM	0.226	0.112 µM	0.709	11.4 µM	0.022	< 0.25 µM	0.944	> 10.2 µM
SCC-15 (head and neck, adherent)	0.848	> 10 µM	0.922	> 5 µM	0.922	> 20 µM	0.975	> 5.12 µM	0.951	> 16 µM	0.592	0.125 µM	0.886	> 10.2 µM	0.484	2.79 µM	0.754	28.6 µM	0.959	> 10.2 µM
LOXIMVI (melanoma, semi-adherent)	0.943	> 10 µM	0.973	> 5 µM	0.881	16.9 µM	0.99	> 5.12 µM	0.983	> 16 µM	0.214	0.0105 µM	0.81	4.69 µM	0.139	0.279 µM	0.188	0.536 µM	0.976	> 10.2 µM
NCI-H1688 (small cell lung carcinoma, adherent)	0.978	> 10 µM	0.985	> 5 µM	0.83	14.3 µM	0.983	> 5.12 µM	0.985	> 16 µM	0.486	0.0585 µM	0.941	> 10.2 µM	0.887	> 50 µM	0.899	> 64 µM	0.976	> 10.2 µM
NCI-H196 (small cell lung carcinoma, adherent)	0.966	> 10 µM	0.978	> 5 µM	0.912	> 20 µM	0.988	> 5.12 µM	0.988	> 16 µM	0.538	0.0815 µM	0.665	1.88 µM	0.942	> 50 µM	0.93	> 64 µM	0.987	> 10.2 µM
NCI-H1355 (lung adenocarcinoma, adherent)	0.7	2.97 µM	0.952	> 5 µM	0.969	> 20 µM	0.974	> 5.12 µM	0.97	> 16 µM	0.443	0.0417 µM	0.955	> 10.2 µM	0.856	> 50 µM	0.549	5.76 µM	0.956	> 10.2 µM
TC-71 (Ewing sarcoma, adherent)	0.721	2.32 µM	0.973	> 5 µM	0.883	15.2 µM	0.986	> 5.12 µM	0.992	> 16 µM	0.668	0.172 µM	0.586	1.06 µM	0.696	9.91 µM	0.948	> 64 µM	0.933	> 10.2 µM
SW872 (soft tissue, adherent)	0.887	9.3 µM	0.977	> 5 µM	0.954	> 20 µM	0.989	> 5.12 µM	0.985	> 16 µM	0.525	0.0741 µM	0.982	> 10.2 µM	0.383	1.54 µM	0.44	2.79 µM	0.974	> 10.2 µM
SK-LU-1 (lung adenocarcinoma, adherent)	0.839	9.63 µM	0.962	> 5 µM	0.868	> 20 µM	0.974	> 5.12 µM	0.977	> 16 µM	0.61	0.139 µM	0.89	> 10.2 µM	0.731	17.4 µM	0.359	1.46 µM	0.939	> 10.2 µM

The IC50 comes from the fitted curve, where viability falls to half of the control; where the fit passes the top or lowest dose, that dose stands as a limit. The AUC spans the tested range (256-fold, ending at the top dose) of the same fit; values near 1 show little effect. For some of these results: Any top dose called inferred was derived from the fitted curves, not read from the paper. For some of these results: Where an entry number is given, a second screen of the drug exists; the two often differ.
